We go through 32 variants from the GPR68 mutational scans of Howard et al. (2025).

B1: GPR68, Q15743 (parent)
chain: MGNITADNSSMSCTIDHTIHQTLAPVVYVTVLVVGFPANCLSLYFGYLQIKARNELGVYLCNLTVADLFYICSLPFWLQYVLQHDNWSHGDLSCQVCGILLYENIYISVGFLCCISVDRYLAVAHPFRFHQFRTLKAAVGVSVVIWAKELLTSIYFLMHEEVIEDENQHRVCFEHYPIQAWQRAINYYRFLVGFLFPICLLLASYQGILRAVRRSHGTQKSRKDQIQRLVLSTVVIFLACFLPYHVLLLVRSVWEASCDFAKGVFNAYHFSLLLTSFNCVADPVLYCFVSETTHRDLARLRGACLAFLTCSRTGRAREAYPLGAPEASGKSGAQGEEPELLTKLHPAFQTPNSPGSGGFPTGRLA

Data set [1] covers variants of B1. Description: cAMP reporter score (Enrich2 score, wild type = 0); higher = more signal; HEK293T, FACS bins.
Data set [2] covers variants of B1. Description: surface expression score (Enrich2 score, wild type = 0); higher = more signal; HEK293T, FACS bins.

Scores whose standard error is large were omitted. The source holds two more conditions with little spread; they are left out. Read del as a deletion of the residues named and ins as an insertion between two positions. For some of these results: How much ogerin was present is not stated here.

As for A138E, the cAMP reporter score in data set [1] (pH 5.5) is -0.09; in data set [1] (pH 6), -0.459.

As to A138Q, the cAMP reporter score is -1.63 in data set [1] (pH 5.5); 0.264 in data set [1] (pH 6); -0.642 in data set [1] (pH 6, modulator: ogerin); -0.444 in data set [1] (pH 6.5, modulator: ogerin). Besides, the surface expression score in data set [2] is 0.473.

On to A138Y, for which the cAMP reporter score in data set [1] (pH 5.5) is -2.9; in data set [1] (pH 6) it was -1.34; in data set [1] (pH 6, modulator: ogerin), -1.56; in data set [1] (pH 6.5, modulator: ogerin), -0.859. Besides, the surface expression score in data set [2] is -1.5.

As to A138P, the cAMP reporter score is -2.09 in data set [1] (pH 5.5) and -0.472 in data set [1] (pH 6.5, modulator: ogerin). In addition, the surface expression score in data set [2] is -0.737.

Consider K148del, for which the cAMP reporter score is -1.5 in data set [1] (pH 5.5); -1.27 in data set [1] (pH 6); -1.86 in data set [1] (pH 6, modulator: ogerin); -1.16 in data set [1] (pH 6.5, modulator: ogerin). The surface expression score in data set [2] was -1.81.

Regarding A137del, the cAMP reporter score is -0.862 in data set [1] (pH 5.5); -0.181 in data set [1] (pH 6); -3.03 in data set [1] (pH 6, modulator: ogerin); -1.3 in data set [1] (pH 6.5, modulator: ogerin). The surface expression score in data set [2] was 0.738.

For the variant G140_V141del, the cAMP reporter score in data set [1] (pH 5.5) was -2.12; in data set [1] (pH 6), -1.25; in data set [1] (pH 6, modulator: ogerin) it was -1.67; in data set [1] (pH 6.5, modulator: ogerin) it was -1.38. In data set [2], the surface expression score is -2.52.

Turning to V144_I145insGS, the cAMP reporter score is -0.487 in data set [1] (pH 5.5); -0.229 in data set [1] (pH 6); -0.813 in data set [1] (pH 6, modulator: ogerin); -1.04 in data set [1] (pH 6.5, modulator: ogerin). Also, in data set [2], the surface expression score is -2.87.

For A138_V139insG, the cAMP reporter score in data set [1] (pH 5.5) was -1.94; in data set [1] (pH 6) it was -1.26; in data set [1] (pH 6, modulator: ogerin), -2.55; in data set [1] (pH 6.5, modulator: ogerin) it was -1.51. For the same variant, the surface expression score in data set [2] is -2.19.

Consider S153C, for which the cAMP reporter score was 0.962 in data set [1] (pH 5.5); -0.22 in data set [1] (pH 6); 1.71 in data set [1] (pH 6, modulator: ogerin); -0.469 in data set [1] (pH 6.5, modulator: ogerin). For the same variant, the surface expression score in data set [2] was -0.021.

With S153T, the cAMP reporter score in data set [1] (pH 5.5) is -0.583; in data set [1] (pH 6), -1.14; in data set [1] (pH 6, modulator: ogerin), -1.38; in data set [1] (pH 6.5, modulator: ogerin) it was -0.788. Also, the surface expression score in data set [2] is 1.05.

Turning to S153I, the cAMP reporter score was 1.41 in data set [1] (pH 5.5); 0.449 in data set [1] (pH 6); -0.961 in data set [1] (pH 6, modulator: ogerin); -0.238 in data set [1] (pH 6.5, modulator: ogerin). The surface expression score in data set [2] amounted to 1.57.

Take S153F: the cAMP reporter score in data set [1] (pH 5.5) was 1.6; in data set [1] (pH 6), 1.32; in data set [1] (pH 6, modulator: ogerin), -0.954; in data set [1] (pH 6.5, modulator: ogerin) it was -0.965. Moreover, the surface expression score in data set [2] was -0.07.

For S153E, the cAMP reporter score was 0.226 in data set [1] (pH 5.5); -1.04 in data set [1] (pH 6); -0.916 in data set [1] (pH 6, modulator: ogerin); -0.591 in data set [1] (pH 6.5, modulator: ogerin). Besides, the surface expression score in data set [2] is -0.848.

Turning to S153G, the cAMP reporter score is 0.221 in data set [1] (pH 5.5); -0.104 in data set [1] (pH 6, modulator: ogerin); 0.506 in data set [1] (pH 6.5, modulator: ogerin). Also, the surface expression score in data set [2] worked out at 0.661.

As to S153R, the cAMP reporter score is -1.39 in data set [1] (pH 5.5); -1.3 in data set [1] (pH 6); -1.38 in data set [1] (pH 6, modulator: ogerin); -1.43 in data set [1] (pH 6.5, modulator: ogerin). Also, the surface expression score in data set [2] is -0.925.

With S153V, the cAMP reporter score in data set [1] (pH 5.5) is 0.665; in data set [1] (pH 6), -0.892; in data set [1] (pH 6, modulator: ogerin), -1.04; in data set [1] (pH 6.5, modulator: ogerin), -0.574. Further, the surface expression score in data set [2] is 2.65.

S153K: the cAMP reporter score in data set [1] (pH 5.5) was 0.424; in data set [1] (pH 6), -0.235; in data set [1] (pH 6, modulator: ogerin), -1.28; in data set [1] (pH 6.5, modulator: ogerin), -0.377. In addition, in data set [2], the surface expression score was -2.85.

S153L: the cAMP reporter score in data set [1] (pH 5.5) is -0.33; in data set [1] (pH 6), -0.551; in data set [1] (pH 6, modulator: ogerin), -0.659; in data set [1] (pH 6.5, modulator: ogerin), -1.11. Moreover, in data set [2], the surface expression score turned out to be 1.57.

As to S153Q, the cAMP reporter score was 0.444 in data set [1] (pH 5.5); -0.786 in data set [1] (pH 6); -0.997 in data set [1] (pH 6, modulator: ogerin); -1.75 in data set [1] (pH 6.5, modulator: ogerin). For the same variant, the surface expression score in data set [2] is 0.54.

For the variant S153A, the cAMP reporter score was -0.696 in data set [1] (pH 5.5); -1.22 in data set [1] (pH 6); -1.54 in data set [1] (pH 6, modulator: ogerin); -0.802 in data set [1] (pH 6.5, modulator: ogerin). Besides, the surface expression score in data set [2] was determined as 0.54.

For the variant S153M, the cAMP reporter score in data set [1] (pH 5.5) is 0.647; in data set [1] (pH 6), -0.153; in data set [1] (pH 6, modulator: ogerin), -0.394; in data set [1] (pH 6.5, modulator: ogerin), -1.21. Further, the surface expression score in data set [2] was found to be 1.52.

S153D: the cAMP reporter score was -0.312 in data set [1] (pH 5.5); 3.18 in data set [1] (pH 6); -1.18 in data set [1] (pH 6, modulator: ogerin); 1.29 in data set [1] (pH 6.5, modulator: ogerin).

Turning to S153N, the cAMP reporter score was 0.166 in data set [1] (pH 5.5); 1.97 in data set [1] (pH 6); 1.22 in data set [1] (pH 6, modulator: ogerin). Also, in data set [2], the surface expression score was -0.393.

Regarding S153P, the cAMP reporter score in data set [1] (pH 5.5) was -0.602; in data set [1] (pH 6) it was -0.468; in data set [1] (pH 6, modulator: ogerin) it was -0.883; in data set [1] (pH 6.5, modulator: ogerin), -1.13. Besides, the surface expression score in data set [2] is -0.989.

As for S153Y, the cAMP reporter score is 0.351 in data set [1] (pH 5.5); 1.49 in data set [1] (pH 6); -0.713 in data set [1] (pH 6, modulator: ogerin); -0.54 in data set [1] (pH 6.5, modulator: ogerin).

As for S153W, the cAMP reporter score stood at 1.28 in data set [1] (pH 5.5); 1.59 in data set [1] (pH 6, modulator: ogerin); 2.63 in data set [1] (pH 6.5, modulator: ogerin). The surface expression score in data set [2] was -0.283.

In the case of S153H, the cAMP reporter score in data set [1] (pH 5.5) was -0.165; in data set [1] (pH 6, modulator: ogerin), -1.08. The surface expression score in data set [2] is -2.45.

For the variant A147_K148insG, the cAMP reporter score in data set [1] (pH 5.5) was -0.771; in data set [1] (pH 6) it was -0.765; in data set [1] (pH 6, modulator: ogerin), -0.973; in data set [1] (pH 6.5, modulator: ogerin) it was -0.477. Further, in data set [2], the surface expression score is -2.88.

Consider K148_L150del, for which the cAMP reporter score in data set [1] (pH 5.5) was -1.73; in data set [1] (pH 6), -1.05; in data set [1] (pH 6, modulator: ogerin) it was -1.91; in data set [1] (pH 6.5, modulator: ogerin), -1.52. In addition, the surface expression score in data set [2] is -2.52.

Turning to V141_S142del, the cAMP reporter score was -1.46 in data set [1] (pH 5.5); -0.935 in data set [1] (pH 6); -1.96 in data set [1] (pH 6, modulator: ogerin); -1.39 in data set [1] (pH 6.5, modulator: ogerin). Further, the surface expression score in data set [2] was -2.95.

Take V144_W146del: the cAMP reporter score was -0.625 in data set [1] (pH 5.5); -1.33 in data set [1] (pH 6); -1.58 in data set [1] (pH 6, modulator: ogerin); -0.843 in data set [1] (pH 6.5, modulator: ogerin). Further, in data set [2], the surface expression score was -2.13.
